According to paper PMC5892938:
The list shows a part of the results. At the low end of the ranking the order means little.

molecular target: GST-SBP-SLBP (stem-loop binding protein) (UniProt Q14493); experiment: targeted RNA Bind-n-Seq; settings: RBNS binding buffer: 25 mM Tris pH 7.5, 150 mM KCl, 3 mM MgCl2, 0.1% Tween, 0.5 mg/mL BSA, 1 mM DTT; 27 nM protein, 750 pM RNA pool; temperature not stated; high values mean tight binding;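 note: DESeq read counts versus GST-SBP nonspecific binding control pulldown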

| Sequence | binding signal (log2 fold change) |
| --- | --- |
| GGUCACGUCUCAAUCAACUCAGUCCCCAGGGAAAUCCCUGGUAAAUUCAACAGCUCGCAGUCAAG | -0.213 |
| GGUCACGUCUCAAUCAACUCUAUUCCCAGGGAAAACCCUGGUAAAUUCAACAGCUCGCAGUCAAG | 0.145 |
| GGUCACGUCUCAAUCAACUCUUUAGAGGGGGGGAAAACCCCUUUGCCCUCAUACUCAACAGCUCGCAGUCAAG | 0.164 |
| GGUCACGUCUCAAUCAACUCACACGAGGGGGGGAAAACCCCUUUACCCUCUUACUCAACAGCUCGCAGUCAAG | 0.0434 |
| GGUCACGUCUCAAUCAACUCAUUUCCAGGAGUUUCCUCCUGUUUAUUCAACAGCUCGCAGUCAAG | -0.274 |
| GGUCACGUCUCAAUCAACUCAUCUCCAGGAGUUUACUCCUGCUAAUUCAACAGCUCGCAGUCAAG | 0.12 |
| GGUCACGUCUCAAUCAACUCUUCUCCAGGAGUUUUCUCCUGCAUACUCAACAGCUCGCAGUCAAG | -0.0841 |
| GGUCACGUCUCAAUCAACUCCUCAGAGGGGGGGAAAACCCCUUUGCCCUCAAUUUCAACAGCUCGCAGUCAAG | -0.0837 |
| GGUCACGUCUCAAUCAACUCAAUAGAGGGGGGGAAAACCCCUUUGCCCUCGUCAUCAACAGCUCGCAGUCAAG | -0.555 |
| GGUCACGUCUCAAUCAACUCUUCGCCAGGAGUUUUCUCCUGUAAAUUCAACAGCUCGCAGUCAAG | 0.133 |
| GGUCACGUCUCAAUCAACUCUUUCGAGGGGGGGAAAACCCCUUUACCCUCACCGUCAACAGCUCGCAGUCAAG | -0.156 |
| GGUCACGUCUCAAUCAACUCUACUCCAGGAGUUUCCUCCUGCAUUCUCAACAGCUCGCAGUCAAG | -0.0861 |
| GGUCACGUCUCAAUCAACUCAUCUUCAGGAGUUUACUCCUGCUUAUUCAACAGCUCGCAGUCAAG | -0.088 |
| GGUCACGUCUCAAUCAACUCAUCUCCAGGAGUUUUCUCCUGUUAACUCAACAGCUCGCAGUCAAG | 0.07 |
| GGUCACGUCUCAAUCAACUCAACGCCAGGAGUUUCCUCCUGUUAAUUCAACAGCUCGCAGUCAAG | 0.0767 |
| GGUCACGUCUCAAUCAACUCUACUUCCAGGGAAAUCCCUGGUAAUUUCAACAGCUCGCAGUCAAG | 0.188 |
| GGUCACGUCUCAAUCAACUCCCCAGAGGGGGGGAAAACCCCUUUGCCCUCCAUUUCAACAGCUCGCAGUCAAG | -0.0539 |
| GGUCACGUCUCAAUCAACUCAACUCCCAGGGAAAUCCCUGGCUUACUCAACAGCUCGCAGUCAAG | 0.0219 |
| GGUCACGUCUCAAUCAACUCUUUCUCAGGAGUUUUCUCCUGUAUACUCAACAGCUCGCAGUCAAG | -0.302 |
| GGUCACGUCUCAAUCAACUCAUCCCCAGGAGUUUUCUCCUGUUUAUUCAACAGCUCGCAGUCAAG | 0.217 |
| GGUCACGUCUCAAUCAACUCUUUCCCAGGAGUUUCCUCCUGUUUUUUCAACAGCUCGCAGUCAAG | -0.195 |
| GGUCACGUCUCAAUCAACUCUUCCCCCAGGGAAAGCCCUGGCAAAUUCAACAGCUCGCAGUCAAG | 0.0219 |
| GGUCACGUCUCAAUCAACUCUUCUCCCAGGGAAACCCCUGGUAAACUCAACAGCUCGCAGUCAAG | 0.142 |
| GGUCACGUCUCAAUCAACUCUUUCUCAGGAGUUUUCUCCUGCUAUUUCAACAGCUCGCAGUCAAG | -0.0929 |
| GGUCACGUCUCAAUCAACUCAUCGCCAGGAGUUUCCUCCUGCAUUUUCAACAGCUCGCAGUCAAG | -0.0526 |

| Sequence | binding signal (log2 fold change) |
| --- | --- |
| GGUCACGUCUCAAUCAACUCAUCGUCCAGGGAAAACCCUGGUAAAUUCAACAGCUCGCAGUCAAG | -0.0601 |
| GGUCACGUCUCAAUCAACUCAGUCCCAGGAGUUUACUCCUGCUUAUUCAACAGCUCGCAGUCAAG | 0.0925 |
| GGUCACGUCUCAAUCAACUCAACGGAGGGGGGGAAAACCCCUUUACCCUCAAAUUCAACAGCUCGCAGUCAAG | -0.202 |
| GGUCACGUCUCAAUCAACUCAAUCCCCAGGGAAAGCCCUGGUAUUUUCAACAGCUCGCAGUCAAG | 0.0192 |
| GGUCACGUCUCAAUCAACUCAAUCCCAGGAGUUUACUCCUGCAUACUCAACAGCUCGCAGUCAAG | 0.0286 |
| GGUCACGUCUCAAUCAACUCAACGGCAGGAGUUUACUCCUGGAUAUUCAACAGCUCGCAGUCAAG | -0.0267 |
| GGUCACGUCUCAAUCAACUCUAUCGCAGGAGUUUUCUCCUGGUAAUUCAACAGCUCGCAGUCAAG | -0.00957 |
| GGUCACGUCUCAAUCAACUCAGUCCCAGGAGUUUUCUCCUGUUUUUUCAACAGCUCGCAGUCAAG | 0.128 |
| GGUCACGUCUCAAUCAACUCAAUCCCCAGGGAAAUCCCUGGUAUACUCAACAGCUCGCAGUCAAG | 0.294 |
| GGUCACGUCUCAAUCAACUCUCACGAGGGGGGGAAAACCCCUUUGCCCUCACAAUCAACAGCUCGCAGUCAAG | 0.296 |
| GGUCACGUCUCAAUCAACUCUUCUUCCAGGGAAAGCCCUGGUAAUUUCAACAGCUCGCAGUCAAG | -0.0148 |
| GGUCACGUCUCAAUCAACUCAAUCCCCAGGGAAAACCCUGGUUUAUUCAACAGCUCGCAGUCAAG | -0.398 |
| GGUCACGUCUCAAUCAACUCUUUCCCAGGAGUUUACUCCUGUUUUUUCAACAGCUCGCAGUCAAG | -0.118 |
| GGUCACGUCUCAAUCAACUCAGUUCCAGGAGUUUCCUCCUGCUAAUUCAACAGCUCGCAGUCAAG | 0.0676 |
| GGUCACGUCUCAAUCAACUCAAUCUCCAGGGAAAACCCUGGCUUUUUCAACAGCUCGCAGUCAAG | -0.00676 |
| GGUCACGUCUCAAUCAACUCCAUAGAGGGGGGGAAAACCCCUUUACCCUCAAUUUCAACAGCUCGCAGUCAAG | -0.441 |
| GGUCACGUCUCAAUCAACUCUUUCCCAGGAGUUUCCUCCUGUUAAUUCAACAGCUCGCAGUCAAG | 0.0321 |
| GGUCACGUCUCAAUCAACUCAUCUCCCAGGGAAAACCCUGGCUAUCUCAACAGCUCGCAGUCAAG | 0.3 |
| GGUCACGUCUCAAUCAACUCAUCAGAGGGGGGGAAAACCCCUUUGCCCUCAAUCUCAACAGCUCGCAGUCAAG | 0.0463 |
| GGUCACGUCUCAAUCAACUCCUUCGAGGGGGGGAAAACCCCUUUACCCUCUUUUUCAACAGCUCGCAGUCAAG | -0.364 |
| GGUCACGUCUCAAUCAACUCAUUCUCCAGGGAAACCCCUGGCUAUUUCAACAGCUCGCAGUCAAG | 0.0585 |
| GGUCACGUCUCAAUCAACUCAAUAGAGGGGGGGAAAACCCCUUUACCCUCACCAUCAACAGCUCGCAGUCAAG | 0.306 |
| GGUCACGUCUCAAUCAACUCAUCCUCAGGAGUUUCCUCCUGUAAACUCAACAGCUCGCAGUCAAG | 0.144 |
| GGUCACGUCUCAAUCAACUCAUGUCCAGGAGUUUUCUCCUGUUUAUUCAACAGCUCGCAGUCAAG | -0.0729 |
| GGUCACGUCUCAAUCAACUCAUCUCCAGGAGUUUCCUCCUGCUUAUUCAACAGCUCGCAGUCAAG | -0.0639 |

| Sequence | binding signal (log2 fold change) |
| --- | --- |
| GGUCACGUCUCAAUCAACUCAAUUUCAGGAGUUUUCUCCUGCUAAUUCAACAGCUCGCAGUCAAG | -0.027 |
| GGUCACGUCUCAAUCAACUCAACUUCAGGAGUUUUCUCCUGUAUUCUCAACAGCUCGCAGUCAAG | 0.159 |
| GGUCACGUCUCAAUCAACUCAUACGAGGGGGGGAAAACCCCUUUACCCUCAGAAUCAACAGCUCGCAGUCAAG | -0.201 |
| GGUCACGUCUCAAUCAACUCAUUCUCAGGAGUUUACUCCUGUAUUUUCAACAGCUCGCAGUCAAG | 0.0241 |
| GGUCACGUCUCAAUCAACUCUACUUCCAGGGAAAACCCUGGUAUUCUCAACAGCUCGCAGUCAAG | 0.115 |
| GGUCACGUCUCAAUCAACUCUUUUUCCAGGGAAAACCCUGGUAUUCUCAACAGCUCGCAGUCAAG | -0.0815 |
| GGUCACGUCUCAAUCAACUCAACUUCCAGGGAAAGCCCUGGCUAUCUCAACAGCUCGCAGUCAAG | -0.31 |
| GGUCACGUCUCAAUCAACUCAAUCCCCAGGGAAAUCCCUGGCAUUUUCAACAGCUCGCAGUCAAG | -0.143 |
| GGUCACGUCUCAAUCAACUCUCCAGAGGGGGGGAAAACCCCUUUGCCCUCAUCAUCAACAGCUCGCAGUCAAG | -0.827 |
| GGUCACGUCUCAAUCAACUCAUCGUCAGGAGUUUACUCCUGCAAUUUCAACAGCUCGCAGUCAAG | -0.0153 |
| GGUCACGUCUCAAUCAACUCUCCCGAGGGGGGGAAAACCCCUUUGCCCUCACAAUCAACAGCUCGCAGUCAAG | -0.107 |
| GGUCACGUCUCAAUCAACUCAAUUUCCAGGGAAAACCCUGGCAUUUUCAACAGCUCGCAGUCAAG | -0.117 |
| GGUCACGUCUCAAUCAACUCAAUCCCAGGAGUUUACUCCUGCAUUUUCAACAGCUCGCAGUCAAG | 0.0932 |
| GGUCACGUCUCAAUCAACUCAAUUUCAGGAGUUUCCUCCUGUUUUCUCAACAGCUCGCAGUCAAG | -0.0145 |
| GGUCACGUCUCAAUCAACUCAUUCGCCAGGGAAAACCCUGGGUAUUUCAACAGCUCGCAGUCAAG | 0.292 |
| GGUCACGUCUCAAUCAACUCAAUCCCCAGGGAAACCCCUGGCAUAUUCAACAGCUCGCAGUCAAG | -0.395 |
| GGUCACGUCUCAAUCAACUCAAAAGAGGGGGGGAAAACCCCUUUACCCUCCCAAUCAACAGCUCGCAGUCAAG | 0.0325 |
| GGUCACGUCUCAAUCAACUCAACUUCAGGAGUUUACUCCUGCAAAUUCAACAGCUCGCAGUCAAG | -0.0639 |
| GGUCACGUCUCAAUCAACUCUUCCCCCAGGGAAAACCCUGGUAUUUUCAACAGCUCGCAGUCAAG | -0.0867 |
| GGUCACGUCUCAAUCAACUCUUUCCCAGGAGUUUCCUCCUGUUAUCUCAACAGCUCGCAGUCAAG | 0.242 |
| GGUCACGUCUCAAUCAACUCAUUCCCCAGGGAAAUCCCUGGCUAAUUCAACAGCUCGCAGUCAAG | -0.101 |
| GGUCACGUCUCAAUCAACUCAGUCUCAGGAGUUUCCUCCUGUUAAUUCAACAGCUCGCAGUCAAG | 0.00689 |
| GGUCACGUCUCAAUCAACUCAUUCUCAGGAGUUUACUCCUGUUUACUCAACAGCUCGCAGUCAAG | -0.0969 |
| GGUCACGUCUCAAUCAACUCUAUCCCCAGGGAAAGCCCUGGUUUACUCAACAGCUCGCAGUCAAG | 0.263 |
